The values below come from US20130123253A1, “MODULATORS OF CENTRAL NERVOUS SYSTEM NEUROTRANSMITTERS” (HUMAN BIOMOLECULAR RESEARCH INSTITUTE, priority 2004, published 2013).

Like-named read-outs stand apart in the source and are kept apart here. A value given as a limit tells only on which side of the number the result lay.

The target in experiment [1] is T1, human dopamine transporter (hDAT) (Homo sapiens, UniProt Q01959). The note with it: for IC50: read-out: Reuptake (IC50, nM) hDAT; for potency at blocking hDAT reuptake: text of Example 28.
The target in experiment [2] is T2, human norepinephrine transporter (hNET) (Homo sapiens, UniProt P23975). Conditions: for IC50: read-out: Reuptake (IC50, nM) hNET.
Experiment [3] concerns the target T1, human dopamine transporter (hDAT). Kind of experiment: Inhibition of [125I]RTI-55 binding in HEK-hDAT cell membranes. Also on record: expressed in transfected cells.
Experiment [4] deals with T2, human norepinephrine transporter (hNET). In words: cell-based.
For experiment [5] the target is unchanged. In words: Inhibition of radioligand binding in HEK-hNET cell membranes. On the set-up: expressed in transfected cells.
Experiment [6] deals with T1, human dopamine transporter (hDAT). In words: cell-based.
[7] abbreviates: read-out: Binding (Ki, nM) hDAT.
[8] abbreviates: Table 9, mean ± SEM, read-out: Binding (Ki, nM) hDAT.
[9] abbreviates: Reuptake (kup, nM) hNET, Table 2.
Setting [10] is: Table 2, read-out: Binding (ki, nM) hNET.
The mark [11] stands for this setting: Reuptake (kup, nM) hDAT, Table 2.
[12] abbreviates: Table 2, read-out: Binding (ki, nM) hDAT.
Where [13] appears, read: Reuptake (Kr, nM) hNET, Table 1.
The mark [14] stands for this setting: Table 1, read-out: Binding (Ki, nM) hNET.
Setting [15] is: Reuptake (Kr, nM) hDAT, Table 1.
The mark [16] stands for this setting: Table 1, read-out: Binding (Ki, nM) hDAT.
Setting [17] is: read-out: Binding (Ki, nM) hNET.

T1 sequence (Q01959 whole entry): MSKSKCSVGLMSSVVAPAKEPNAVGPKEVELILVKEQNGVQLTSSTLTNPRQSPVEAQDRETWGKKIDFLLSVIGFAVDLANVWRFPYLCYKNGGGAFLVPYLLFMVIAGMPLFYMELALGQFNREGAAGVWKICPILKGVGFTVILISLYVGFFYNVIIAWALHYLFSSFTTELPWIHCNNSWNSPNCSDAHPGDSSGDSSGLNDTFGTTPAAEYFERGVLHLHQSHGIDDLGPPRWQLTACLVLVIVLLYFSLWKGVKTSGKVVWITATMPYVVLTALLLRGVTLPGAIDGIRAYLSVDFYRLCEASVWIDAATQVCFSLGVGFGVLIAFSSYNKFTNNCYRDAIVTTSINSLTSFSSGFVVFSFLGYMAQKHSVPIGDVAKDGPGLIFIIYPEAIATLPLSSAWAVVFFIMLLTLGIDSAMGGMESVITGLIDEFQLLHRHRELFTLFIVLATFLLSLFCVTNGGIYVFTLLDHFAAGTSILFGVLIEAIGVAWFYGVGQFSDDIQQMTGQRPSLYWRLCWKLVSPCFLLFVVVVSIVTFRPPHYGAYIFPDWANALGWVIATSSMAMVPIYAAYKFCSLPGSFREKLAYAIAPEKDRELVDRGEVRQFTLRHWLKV
T2 sequence (P23975 whole entry): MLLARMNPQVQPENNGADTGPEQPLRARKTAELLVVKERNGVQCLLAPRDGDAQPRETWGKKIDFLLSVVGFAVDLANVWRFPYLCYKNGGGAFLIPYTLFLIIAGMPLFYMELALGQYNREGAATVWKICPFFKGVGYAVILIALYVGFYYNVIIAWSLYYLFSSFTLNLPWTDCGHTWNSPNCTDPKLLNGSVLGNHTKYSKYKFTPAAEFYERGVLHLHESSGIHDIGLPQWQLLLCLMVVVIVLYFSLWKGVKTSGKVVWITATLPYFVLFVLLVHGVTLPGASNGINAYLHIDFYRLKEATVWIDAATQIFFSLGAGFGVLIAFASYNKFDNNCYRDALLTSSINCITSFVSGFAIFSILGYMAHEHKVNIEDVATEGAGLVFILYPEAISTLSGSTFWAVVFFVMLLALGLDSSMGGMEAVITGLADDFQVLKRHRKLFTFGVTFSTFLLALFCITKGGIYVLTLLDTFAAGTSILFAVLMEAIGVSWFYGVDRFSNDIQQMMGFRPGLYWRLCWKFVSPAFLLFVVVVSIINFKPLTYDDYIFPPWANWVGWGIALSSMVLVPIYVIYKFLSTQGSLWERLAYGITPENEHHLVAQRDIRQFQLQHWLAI

As for `NCC1CCC(CCc2c(F)c(F)c(F)c(F)c2F)O1` (centres unmarked) [Compound 15h, 2-Aminomethyl-5-pentafluorophenethyltetrahydrofuran], the concentration for half-maximal inhibition (IC50) in experiment [1] (Table 9, mean ± SEM) was determined as 4590 ± 692 nM.

For the compound `NCC1CCC(c2ccccc2)O1` (centres unmarked) [Compound 15b, 2-Aminomethyl-5-phenyltetrahydrofuran], the IC50 in experiment [1] (Table 9, mean ± SEM) is 147 ± 22.2 nM; in experiment [2], 23 ± 5 nM. For the same compound, in experiment [1], the “potency at blocking hDAT reuptake” value is recorded as “considerable potency at blocking transporter reuptake”. Besides, the “potency at blocking hNET reuptake” value in experiment [2] is recorded as “considerable potency at blocking transporter reuptake”.

Regarding `NCC1CCC(c2ccc(Cl)cc2)O1` (centres unmarked) [Compound 15f], the concentration for half-maximal inhibition (IC50) in experiment [1] (Table 9, mean ± SEM) was 313 ± 76.1 nM. For the same compound, in experiment [2], the “potency at blocking hNET reuptake” value is listed as “considerable potency at blocking transporter reuptake” and the IC50 was 61.2 ± 18.9 nM.

Take `NCC1CCC(CCc2cccc3ccccc23)O1` (centres unmarked) [Compound 15a, 2-(Aminomethyl)-5-(1′-naphthethyl)tetrahydrofuran]: the IC50 in experiment [2] was 3420 ± 655 nM.

As for `COc1ccc(F)cc1CCCC1CCC(CCN)O1` (stereo not drawn) [Compound 18p, Cis-2-aminoethyl-5-(3′-(2″-methoxy-5″-fluorophenyl)-1′-propyl)tetrahydrofuran], in experiment [1] (Table 10, mean), the IC50 came out at 41300 nM. Further, in experiment [3] (setting [7]), the Ki is 21200 nM.

Take `NCC1CCC(c2ccc(Br)cc2)O1` (centres unmarked) [Compound 15g]: the IC50 in experiment [1] (Table 9, mean ± SEM) was 167 ± 68.6 nM; in experiment [2] (Table 9, mean ± SEM), 59.5 ± 20.5 nM. Also, in experiment [2] (text of Example 28), the “potency at blocking hNET reuptake” value is reported as “considerable potency at blocking transporter reuptake”. Further, the Ki in experiment [3] (setting [8]) stood at 6120 ± 895 nM.

Consider `COc1ccc(F)cc1[C@H]1CC[C@H](CCN)O1` (stereo in doubt) [Compound 18c, Trans-2-aminoethyl-5-(2′-methoxy-5′-fluorophenyl)tetrahydrofuran], for which the IC50 in experiment [1] (Table 10, mean) was more than 10000 nM. In experiment [3] (setting [7]), the Ki stood at 32900 nM.

In the case of “2-(Aminomethyl)-5-(3′-pyridinylethyl)tetrahydrofuran [Compound 15i]”, the IC50 in experiment [1] (Table 9, mean ± SEM) is more than 10000 nM; in experiment [2] (Table 9, mean ± SEM) it was more than 10000 nM. The Ki in experiment [3] (setting [8]) was more than 10000 nM.

`c1cncc(CCC2CCC(CCNCCC3CCC(CCc4cccnc4)O3)O2)c1` (centres unmarked) [N,N-bis(5′-(3″- pyridyl-ethyl)-2′-tetra-hydro-furylethyl) amine]: the Ki in experiment [4] (setting [9]) is more than 10000 nM; in experiment [5] (setting [10]) it was 7750 nM; in experiment [6] (setting [11]), more than 10000 nM; in experiment [3] (setting [12]), 12300 nM.

Take `NCCC1CCC(CCC2CCCCC2)O1` (centres unmarked) [2-(aminoethyl)-5-(cyclohexylethyl) tetrahydrofuran]: the Ki in experiment [4] (setting [13]), in experiment [5] (setting [14]), in experiment [6] (setting [15]) and in experiment [3] (setting [16]) was more than 10000 nM throughout.

As for `NCCC1CCC(Cc2ccccc2)O1` (centres unmarked) [Compound 17d, 2-(2′-aminoethyl)-5-benzyltetrahydrofuran], the IC50 in experiment [1] (Table 9, mean ± SEM) was 565 ± 154 nM; in experiment [2], 347 ± 70.1 nM.

As to `Cc1cc(CCC2CCC(CN)O2)ccc1F` (centres unmarked) [2-(aminomethyl)-5-(4′-fluoro-3′-methylphenethyl) tetrahydrouran], the Ki amounted to 526 nM in experiment [4] (setting [13]), 880 nM in experiment [5] (setting [14]), 2360 nM in experiment [6] (setting [15]) and 7290 nM in experiment [3] (setting [16]).

Regarding `CN1CCC[C@H]1C=Cc1ccccc1` (stereo in doubt) [1-Methyl-2-Styrenyl Pyrrolidine], the half-maximal inhibitory concentration (IC50) is 250 nM in experiment [4] (Reuptake (IC50, nM) hNET, Table 6) and 1030 nM in experiment [6]. The Ki in experiment [5] (Table 6, read-out: Binding (Ki, nM) hNET) stood at 2780 nM; in experiment [3] (Table 6, read-out: Binding (Ki, nM) hDAT), 3240 nM.

As for `Cc1cc(CCC2CCC(CCN)O2)ccc1F` (centres unmarked) [2-(aminoethyl)-5-(4′-fluoro-3′-methylphenethyl) tetrahydrofuran], the Ki came out at 374 nM in experiment [4] (setting [13]), 882 nM in experiment [5] (setting [14]), 509 nM in experiment [6] (setting [15]) and 6380 nM in experiment [3] (setting [7]).

Consider `Cc1ccc(C2CCC(CN)O2)cc1F` (centres unmarked) [2-(aminomethyl)-5-(3′-fluoro-4′-methylphenyl) tetrahydrofuran], for which the Ki came to 94 nM in experiment [4] (setting [13]), 305 nM in experiment [5] (setting [14]), 337 nM in experiment [6] (setting [15]) and 6850 nM in experiment [3] (setting [16]).

With `c1ccc2cc(C3CCC(CCNCCC4CCC(c5ccc6ccccc6c5)O4)O3)ccc2c1` (centres unmarked) [N,N-bis(5′-(2″- naphthyl-2′-tetrahydro-furyl)ethyl) Amine], the Ki in experiment [4] (setting [9]) stood at 2290 nM; in experiment [5] (setting [10]), 1300 nM; in experiment [6] (setting [11]), 51 nM; in experiment [3] (setting [12]) it was 75 nM.

In the case of `NCCC1CCC(CCc2ccc3ccccc3c2)O1` (centres unmarked) [2-(aminoethyl)-5-(2′-naphthylethyl) tetrahydrofuran], the Ki was found to be 665 nM in experiment [4] (setting [13]), 1610 nM in experiment [5] (setting [14]), 655 nM in experiment [6] (setting [15]) and 1490 nM in experiment [3] (setting [16]).

As for `NCC1CCC(c2cccc3ccccc23)O1` (centres unmarked) [Compound 15e, 2-(Aminomethyl)-5-(1′-naphthyl)tetrahydrofuran], the IC50 in experiment [1] (Table 9, mean ± SEM) was found to be 463 ± 119 nM; in experiment [2] (Table 9, mean ± SEM), 210 ± 19.5 nM. Besides, in experiment [3] (setting [8]), the inhibition constant (Ki) is 8520 ± 229 nM.

For the compound `NCCC1CCC(CCc2cccnc2)O1` (centres unmarked) [2-(aminoethyl)-5-(3′-pyridylethyl) tetrahydrofuran], the Ki in experiment [4] (setting [13]) is more than 10000 nM; in experiment [5] (setting [14]) it was 5340 nM; in experiment [6] (setting [15]), more than 10000 nM; in experiment [3] (setting [16]), more than 10000 nM.

For the compound `COc1ccc(C2=NNC(=O)C3CC=CCC23)cc1OC` (racemic) [Compound 19, 4-(3,4-Dimethoxy-phenyl)-4a,5,8,8a-tetrahydro-2H-phthalazin-1-one, reference compound], the IC50 in experiment [4] (Reuptake (IC50) hNET) and in experiment [6] was more than 100000 nM each time. In addition, the Ki in experiment [5] (Binding (Ki) hNET) and in experiment [3] (Binding (Ki) hDAT) was more than 100000 nM throughout.

As to `COc1ccc(F)cc1[C@@H]1CC[C@H](CCN)O1` (relative stereo) [Compound 18d, Cis-2-aminoethyl-5-(2′-methoxy-5′-fluorophenyl)tetrahydrofuran], the IC50 in experiment [1] (Table 10, mean) is more than 10000 nM. The Ki in experiment [3] (setting [7]) was more than 10000 nM.

For the compound `COc1ccc(CCC2CCC(CCN)O2)cc1` (centres unmarked) [2-(aminoethyl)-5-(4′-methoxy-phenethyl) tetrahydrofuran], the Ki in experiment [4] (setting [13]) was more than 10000 nM; in experiment [5] (setting [14]), 6010 nM; in experiment [6] (setting [15]), more than 10000 nM; in experiment [3] (setting [16]), more than 10000 nM.

With `COc1ccc(F)cc1[C@@H]1CC[C@@H](CCNCC[C@@H]2CC[C@@H](c3cc(F)ccc3OC)O2)O1` (relative stereo) [N,N-bis (trans-5′-(2″- methoxy-5″-fluoro-phenyl-2′-tetra-hydrofuryl)ethyl) Amine], the Ki in experiment [4] (setting [9]) came out at 2940 nM; in experiment [5] (setting [10]), 2640 nM; in experiment [6] (setting [11]), 1390 nM; in experiment [3] (setting [12]) it was 1390 nM.

Regarding `NCC[C@H](Oc1ccc(C(F)(F)F)cc1)c1ccccc1` [22(S), (S)-norfluoxetine, reference compound], the Ki in experiment [5] (setting [17]) was 6530 ± 1190 nM; in experiment [3] (setting [7]) it was 4540 ± 1130 nM. The IC50 in experiment [2] came to 2806 ± 22 nM.

Regarding `NCC1CCC(c2ccc(Cl)cc2)O1` (centres unmarked) [2-(aminomethyl)-5-(4′-chlorophenyl) tetrahydrafuran], the Ki is 61 nM in experiment [4] (Reuptake (Kr, nM) hNET); 1110 nM in experiment [5] (setting [17]); 313 nM in experiment [6] (setting [15]); 6830 nM in experiment [3] (setting [7]).

Regarding `NCCC1CCC(CCc2ccc(F)cc2)O1` (centres unmarked) [2-(aminoethyl)-5-(4′-fluoro-phenethyl) tetrahydrofuran], the inhibitory constant (Ki) is more than 10000 nM in experiment [4] (setting [13]), more than 10000 nM in experiment [5] (setting [14]), 3280 nM in experiment [6] (setting [15]) and more than 10000 nM in experiment [3] (setting [16]).

As to `Cc1ccc(CCC2CCC(CCN)O2)cc1` (centres unmarked) [2-(aminoethyl)-5-(4′-methylphenethyl) tetrahydrofuran], the inhibition constant Ki was 919 nM in experiment [4] (setting [13]), more than 10000 nM in experiment [5] (setting [14]), more than 10000 nM in experiment [6] (setting [15]) and 7610 nM in experiment [3] (setting [16]).

On to `NCCC1CCC(CCc2ccc(O)cc2)O1` (centres unmarked) [Compound 17e, 2-Aminoethyl-5-(4′-hydroxyphenethyl)tetrahydrofuran], for which the IC50 is 2530 ± 298 nM in experiment [1] (Table 9, mean ± SEM) and 2130 ± 345 nM in experiment [2]. Also, the Ki in experiment [3] (setting [8]) came to 5500 ± 381 nM.

In the case of `NCC1CCC(C2CCCCC2)O1` (centres unmarked) [2-(aminomethyl)-5-cyclohexyl tetrahydrofuran], the Ki in experiment [4] (setting [13]) is 317 nM; in experiment [5] (setting [14]) it was 405 nM; in experiment [6] (setting [15]), 2570 nM; in experiment [3] (setting [16]) it was more than 10000 nM.

On to `NCC1CCC(CCC2CCCO2)O1` (centres unmarked) [2-(amino-methyl)-5-(-2″- tetrahydrofuryl-2′-ethyl)tetra-hydrofuran.], for which the inhibition constant Ki is more than 10000 nM in experiment [4] (setting [13]), 72100 nM in experiment [5] (setting [14]), more than 10000 nM in experiment [6] (setting [15]) and 142000 nM in experiment [3] (setting [16]).

For the compound `CC(C)(C)c1ccc(CCC2CCC(CCN)O2)cc1` (centres unmarked) [2-(aminoethyl)-5-(4′-t-butyl-phenethyl) tetrahydrofuran], the inhibition constant Ki in experiment [4] (setting [13]) is 556 nM; in experiment [5] (setting [14]), more than 10000 nM; in experiment [6] (setting [15]) it was more than 10000 nM; in experiment [3] (setting [16]), more than 10000 nM.

Regarding `NCC1CCC(c2ccc3ccccc3c2)O1` (centres unmarked) [Compound 15c, 2-(Aminomethyl)-5-(2′-naphthyl)tetrahydrofuran], the IC50 in experiment [1] (Table 9, mean ± SEM) amounted to 28 ± 10 nM; in experiment [2] (Table 9, mean ± SEM), 58.5 ± 13.8 nM. Besides, in experiment [1], the “potency at blocking hDAT reuptake” value is “considerable potency at blocking transporter reuptake”. The “potency at blocking hNET reuptake” value in experiment [2] (text of Example 28) is “considerable potency at blocking transporter reuptake”. The Ki in experiment [3] (setting [8]) was 512 ± 33 nM.
